# The source gives no read counts; variants with many changes may rest on few reads.
# B1: CPEB3 Ribozyme (parent)
# chain: UAACAGGGGGCCACAGCAGAAGCGUUCACGUCGCAGCCCCUGUCAGAUUCUGGUGAAUCUGCGAAUUCUGCUGUAUAUCUC
# Variants of: B1
# Assay: self-cleavage, relative activity (ratio to wild type); higher = more cleavage; in vitro, sequencing
# Summary of the method: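 For each CPEB3 ribozyme variant, relative activity is its cleaved/total read fraction divided by the unmutated ribozyme's. Barcoded error-prone PCR libraries were transcribed by T7 RNA polymerase (5 hours, 37°C) and held in DNase I for 15 min before an EDTA stop, with cleavage occurring throughout. Template-switching reverse transcription and Illumina sequencing were used to read the RNAs. A 5-read minimum applied, and results are the mean of three batches.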
row,Variant,self-cleavage
1,UAACAGGGGGACACUGCAGAAGCGCUCACGUCGCAGCCCCUGUCAGAUUCUGGUGAAUCUGCGAAUUCUGCUGUAUAUCUC,0.05
2,UAACAGGGGGACACAGCAGAAGCGUUCACGUCACAGCCCCUGUCAGACUCUGGUGAAUCUGCGAAUUCUGCUGUAUAUCUC,0.05
3,UAACAGGGGUCCACAGCAGAAGCGUUCACGUCGCAGCCCCUGUCGGAUUCUGGUGAAACUGCGAAUUCUGCUGUAUAUCCC,0.13
4,UAACAGGGGUCCACAACAGAAGCGUCCACGUCGCAGCCCCUGUCAGAAUCUGGUGAAUCUGCGAAUUCUGCUGUAUAUCUC,0.06
5,UAACAGGGGUCCACAGCAGAAGCGUUCACGUCGCGGCCCCUGUCAGAUUCUAGUGAAUCUGCGAAUUGCGCUGUAUAUCUC,0.07
6,UAACAGGGGUCCACAGCAGAAGCGUUCACGUCGCAGCCCCUGUCAGAUUCUGGUGAAUCUGCGAAUUCUGCUGCAUAUCCC,0.24
7,UAACAGGGGGACACAGCAGAAGCGUUCACGUCGCAGCCCCUGUCCGACUCUGGUGAAUAUGCGAAUUCUGCUGUACAUCUC,0.05
8,UAACAGGGGUACACAGCAGAAGCGUUCACGUCGCAGCCCCCGUCAGAUUCUGGUGAAUCUGCGGAUUCUGCUGUUUAUCUC,0.07
9,UAACAGGGGUCCACAGCAGAAGCGUUCACGUCGCAGCCCCUGUCAGAUUCUGGCGAAUCUGCGAAUUCUGCCGUAUAUCUC,0.4
10,UAACAGGGGGACACAGCAGAAUCGCUCACGUCGCAGCCCCUGUCAGAUUCUGGUGAAUCUGCGAAUUCUGCUAUACAUCUC,0.4
11,UAACAGGGGUCCACAGCAGAAGCGUUCACGUCGCAGCCCCUGUCUGAUUCUCGUGAAUCAGCGAAUUCUGCUGUAUAUCUC,0.12
12,UAACAGGGGUCCACGGCAGAAGCGUUCACGUCGCAGCCCCUGUCAGGUUCUGGUGAAUCUGCGAAUUCUGCUGUAUAUCUC,0.24
13,UAACAGGGGGACCCUGCAGAAGCGUUCACGUCGCAGCCCCUGUCGGAUUCGGGUGAACCUGCGAAUUCUGCUGUAUAUCUC,0.1
14,UAACAGGGGUCCACAGCAUAAGCGUUCACGUCGCAGCCACUAUCAGAUUCUGGUGAAUCUGCGAAUUCUGCUGUAUAUCUC,0.1
15,UAACAGGGGUCCACUGCAGAAGCGUUCACGUCGCAGCCCCUGUCUGAUUCUGGUGAAUCUGCGAAUUCUGCUGUAUACCUC,0.05
16,UAACAGGGGUCCACAGCGGAAGCGUUCACGUCGCAGCCCCAGUCAGAUUCUGGUGAAUCUGCGAAUUCUGCUGUAUAUCUC,0.07
17,UAACAGGGGGACACAGCAGAAGCGUUCACGUCGCAGCCCCAGUCAGAUCCUGGCGAAUCUGCUAAUUCUGCUGUAUAUCUC,0.04
18,UAACAGGGGGACACAACAGAAGCGUUCACGUCGCAGCCCCUGUCAGAUUCUGGUGUAUCUGCGAAUUCUGCUGUAUAUCUC,0.3
19,UAACAGGGGGACACAGCAGAAGCGUUCACGUCGCAGCCCCUGUCAGUUUCUGGUGUAUCCGCGAAUUCGGCUGUAUAUCUC,0.04
20,UAACAGGGGUACACAGCAGAAGCGUUCACGCCGCAGCCCCUGUCAAAUUCUGGAGAAUCUGCGAAUUCUGCUGUAUAUCUC,0.22
21,UAACAGGGGGACACUGCAGAAGCGUUCACGUCGCUGCCCCUGUCAGAUUCUGGUGAAUCUGCGAAUUCUGCUGUAUAUCUC,0.16
22,UAACAGGGGGACACAGCAGAAACGUUCACGUCGCAGCCCCUGUCUGUUUCUGGGGAAUCUGCGAAAUCUGCUGUGUAUCUC,0.02
23,UAACAGGGGUCCACAGCUGAAGCGUUCACGUCGCAGCCCCUGUCAGAUUCUGAUGAGUCUGCGAAUUCUGCUGUAUAUCUC,0.05

row,Variant,self-cleavage
1,UAACAGGGGUCCACAGCAGAAGCGAUCACGUCGCAGCCCCCGUCAGAUUCUGGUGAAUCUGCGAAUUCUGCUGUAUAUCUC,0.22
2,UAACAGGGGGACACAGCAGAAGCGUUCACGUCGCAGCCCCUGUCAGAUUCUGGUGAGUCUGCGAGUUCUGCUGUAUAUCCC,0.17
3,UAACAGGGGGACACAGCAGAAGCGUUCACGUCGCUGCCCCUGUCAGAUUCUGGUGAAUCUGCGGGCUCUGCUGUAUAUCUC,0.08
4,UAACAGGGGGACACAGCGGAGGCGUCCACGACGCAGCCCCUGUCAGAUCCUGGUGAAUCCGCGAAUUCUGCUGUAUAUCUC,0.03
5,UAACAGGGGGACACAGCAGAAGCGUGCACGUCGCAGCCCCUGCCAGAUUCUGGUGGAUCUGCGAAUUCUGCUGUUUAUCUC,0.08
6,UAACAGGGGGACACAGCAGAAGCGUUCACGUUGCAGCCCCUGUCAGAUUCUGGUGAAUCUGCGAAUUCCGCUGUAUGUCUC,0.27
7,UAACAGGGGGACACAGCAGAAGCGUUCACGUCGCAGCCUCAGCCAGAUGCUGGUGAAUCAGCGAAUUCUGCUGUAUAUCUC,0.09
8,UAACAGGGGGACACACCAGAAGCCUUCACGCCGCAGCCCCUGUCAAAUUCUGGUGAAUCUGCGAAUUCUGCUGUAUGUCUC,0.04
9,UAACAGGGGGACAGAGCAGAAGCGUUCACGACGCAGCCCCUGUCAGAUUCUGAUGAAUCCGCGAGUUCUGCUGUAUAUCUC,0.04
10,UAACAGGGGGACUCAGCAGAGGCGUUCCCGUCGCAGCCCCUGUCAGAUUCUGGUGAAUCUGCGAAUUCUGCUAUAUAUCUC,0.11
11,UAACAGGGGUCCUCAGCAGAAGCAUUCGCGUCGCAGCCCCUGUCAGAUUCUAGUGAAUCUGCGAAUUCUGCUGUAUAUCUC,0.04
12,UAACAGGGGGACACAGCAGAAGCGAUCACGUCCCAGCCCUCGUCAGAUUCCGGUGAAUCUGCGAAUUCUGCUGUAUAUCUC,0.06
13,UAACAGGGGUCCACAGCAGAAGCGUUCACGUCGCAGCCCCAGUCAGAUUCUGGUGAACCAGCGAAUUCUGCUGUAUAUCCC,0.05
14,UAACAGGGGUCCACAGCAGAAGCGUUCACGUCGCAGUCCCUGUCAGAUUCUGGCGAAUCUGCGAACUCUGCUGUAUAUCUC,0.08
15,UAACAGGGGUCCACAGCAGAAGCGUUCACGACGCGGCCCCUGUCAGAUUCUCGUGAAUAUGCGAACUCUGCUGUAUAUCUC,0.07
16,UAACAGGGGGACACAGCAGAAGCGUUCGCGUCGCAGCCCCUGUCAGAUUCUGGUGUAUCUGCGAAUUCUGCUGUAUAUUUC,0.2
17,UAACAGGGGUCCACAGCAGAAGCGUUCACGCCGCAGCCCCAGUCAGAUUCUGGUGAAUCUGCGAAUUCUGCUGUAUAUCUC,0.05
18,UAACAGGGGGACACAGCAGAGGCGUUCACGUCGCAGCCCCUGUCAGAUUCUGGUGAAUCUGCGAACUCUGCUGUAUAUCUC,0.4
19,UAACAGGGGUCCACAGCAGUAGCGUCCACGUCGCAGCCCCUGUCUGAUUCCGCUGAAUCUGCGAAUUCUGCUGUAUAUCCC,0.15
20,UAACAGGGGUCCACAGCAGAAGCGCUCACGUCGCAGCCCCUGUCAGAUUCUGGUGAACCUGCGAAUUCUGCUGUAUAUCCC,0.15
21,UAACAGGGGGACGCAGCAGGAGCGAUCACGUCGCAGCCCUUGUCAGAUUCUGGUGAAUCUGCGAUUUCUGCUGUAUAUCUC,0.04
22,UAACAGGGGUCCACAGCAGAAGCGCUCACGUCGCAGCCCCUGUCAGAUUCAGGUGAAUCUGCGAAUUCUGCUGUAUAUCUC,0.06
23,UAACAGGGGUCCACAGCAUAAGCGUUCACGUCGCAGCCCCUGUCAGAUACUGGUGAACCUGCGAAUUCUGCUGUAUAUCUC,0.05

row,Variant,self-cleavage
1,UAACAGGGGGACACAGCUGAAGCGUUCACGUCGCAGCCCCUGUCAGAUUCUGGUGAGUCUGCGAAUUCUGCUGAAUAUCUC,0.47
2,UAACAGGGGGACACAGCAGAAGCGUUUACGUCGCAGCCCCUGUCAGAUUCUGGUGAAUCUGCGAAUACUGCUGUAUAUCUC,0.2
3,UAACAGGGGGAUACAGCAGAAGCGUUCACGUCGCAGCCCCUGUCAGAUUCCGGUGAAUCUGCGAAUUCUGCUGUAUAUCUC,0.3
4,UAACAGGGGGACACAGCAGAGGCGUUCACGUCGCAGCCCCUGUCAGAUUCUGGUGAAUCCGCGAAUUCUGCUGUAUAUCUC,0.32
5,UAACAGGGGGACACAGCAGAAGCGUUCACGUCGCAGCCCCCGUCAGAUUCUGGUGAAUCUGCGAAUCCUGCUGUAAAUCUC,0.06
6,UAACAGGGGGACACGGCAGAAGCGCUCACGUCGCAGCCCCUGUCAGAUUCUGGUGAAUCUGCGGAUCGUGCUGUAUGUCUC,0.16
7,UAACAGGGGUCCACAGCAGAAGUGUUCACGUCGCAGCCCCUGUCAGAUUCUGGUGAAUCUGCGAAUUCUGCUUUAUAUCUC,0.07
8,UAACAGGGGUCCACAGCAGAAGCGUUCACGUUGCAGCCCCUGGCAGACUCUGGUGUAUCUGCGAAUUCUGCUGUAUACCUC,0.03
9,UAACAGGGGGACACAGCAGAAGCGUUCACGUCGCAGGCCCUGUCAGAUUCUGGUGAAUCUGGGAGUUCUGCUGUAUACCUC,0.03
10,UAACAGGGGGACACAGCAGAAGCGUUCACGUCACAGCCCCUGUCAGAUUCUGGUGAAUCUGCGAACACUGCUGUAUAUCUC,0.05
11,UAACAGGGGUCCACAGCAGAAGCGUUCACGUCGCAGCCCCUGUCAGACUCUGGUGAAUCAGCGAAUUCUGCUGUAUAUCUC,0.1
12,UAACAGGGGGACACAGCAGGAGCGUUCGCGUCGCAGCCCCUGUCAGAUUCUGGUGAAUCUGCGAAUUCUGCAGUAUAUCUC,0.05
13,UAACAGGGGGACACAGCAGAAGUGUUCUCGUCGCAGCCCCUGUCAGAUUCUGGCGAGUCUGCGAAUUCUGCUGUAUAUCUC,0.11
14,UAACAGGGGGACACAACAGAAGCGUUCACGUCGCAGCCCCUGCCAUAUUCAGGUGAAUCUGUGAAUCCUGCUGUAUAUCUC,0.05
15,UAACAGGGGUCCACAGCCGAAGCGUUCACGUCGCAGCCCCUGUCGGAUUCUGGUGAAUCUUCGGAUUCUGCUGUAUAUCUC,0.03
16,UAACAGGGGGACACGGUAGAAGCGUUCACGCCGCAGCCCCUGUCAGAUUCUGGUGAAUCUGCGAAUUCUGCUGUAUAUCUC,0.11
17,UAACAGGGGUCCACAGCAGAAGCGUUCACGUCGCAGCCCCCGUCAGAUUCUGGUGGAUCUGCGAAGCCUGCUGUAUAUCUC,0.07
18,UAACAGGGGUCCACAGCAGAAGGGUUCACGUCGCAGCCCCUGUCAGGUUCUGGUGAAUCGGCGAAUUCUGCCGUAUAUCUC,0.14
19,UAACAGGGGGACACAGCAGGAGCGUUCACGUCGCAGCCCCUGUCAGAUUCUGGUGAAUAUGCGAAUUCUGCUGUAUAUCUC,0.2
20,UAACAGGGGGACACAGCAGAAGCGUUCACGUCGCAGCACCAGUCAGAUUCUGGUGAAUCUGUGAAUUCUGCUGUAAAUCUC,0.03
21,UAACAGGGGGACACAGCAGAUGCGUUCACAUCGCAGCCCCUGUCUGAUUCUGGUGAAUCUACGAAUUCUGCUGUGUAUCUC,0.03
22,UAACAGGGGUCCACAGCGGAAGCGCUCACGUCGCGGCCCCUGUCAGAAUCUGGUGAAUCUGCGAAUUCUGCUGUAUAUCCC,0.04
